From US11420968B2 (priority 2018, dated 2022)
Where two headings read alike, the source gives them in different places.

How the values were obtained:
Molt-4 cells = assay: cells; conditions: Homo sapiens
RS4;11 cells = assay: cells; conditions: Homo sapiens
[1] = MOLT-4, read-out: Cellular activity (IC50, nM) Molt-4
[2] = RS4-11, 48 h, read-out: Cellular activity (IC50, nM) RS4, 11
[3] = MOLT-4, read-out: Celluclar activity (IC50, nM) Molt-4
[4] = RS4-11, 48 h, read-out: Cellular activity (IC50, nM) RS4;11
[5] = RS4-11, read-out: Celluclar activity (IC50, nM) RS 4, 11

SMILES	IC50 (Molt-4 cells; [1]) [nM]	IC50 (RS4;11 cells; [2]) [nM]	IC50 (Molt-4 cells; [3]) [nM]	IC50 (RS4;11 cells; [4]) [nM]	IC50 (RS4;11 cells; [5]) [nM]	IC50 (RS4;11 cells; RS4-11, read-out: Cellular activity (IC50, nM) RS4, 11) [nM]
O=C(NS(=O)(=O)c1ccc(NCC2CCOCC2)c([N+](=O)[O-])c1)c1ccc(C2=CCC(N3CCCC3c3ccccc3C3=CCNCC3)CC2)cc1Oc1cnc2[nH]ccc2c1 (stereo not shown) [Example C195, 3-((1H-pyrrolo[2,3-b]pyridin-5-yl)oxy)-N-((3-nitro-4-(((tetrahydro-2H-pyran-4-yl)methyl)amino)phenyl)sulfonyl)-4′-(2-(2-(1,2,3,6-tetrahydropyridin-4-yl)phenyl)pyrrolidin-1-yl)-2′,3′,4′,5′-tetrahydro-[1,1′-biphenyl]-4-carboxamide]	> 10000	> 10000				
CC(C)c1ccccc1C1CCCN1C1CCC(c2ccc(C(=O)NS(=O)(=O)c3ccc(NCC4CCOCC4)c([N+](=O)[O-])c3)c(Oc3cnc4[nH]ccc4c3)c2)CC1 (stereo not drawn) [Example D5, trans- or cis-2-((1H-pyrrolo[2,3-b]pyridin-5-yl)oxy)-4-(4-(2-(2-isopropylphenyl)pyrrolidin-1-yl)cyclohexyl)-N-((3-nitro-4-(((tetrahydro-2H-pyran-4-yl)methyl)amino)phenyl)sulfonyl)benzamide]	7440	43				
C=C(C)c1ccccc1C1CCCN1C1CCC(c2ccc(C(=O)NS(=O)(=O)c3ccc(NCC4CCOCC4)c([N+](=O)[O-])c3)c(Oc3cnc4[nH]ccc4c3)c2)CC1 (stereo not drawn) [Example D6, trans- or cis-2-(1H-pyrrolo[2,3-b]pyridin-5-yl)oxy)-N-((3-nitro-4-(((tetrahydro-2H-pyran-4-yl)methyl)amino)phenyl)sulfonyl)-4-(4(2-(2-(prop-1-en-2-yl)phenyl)pyrrolidin-1-yl)cyclohexyl)benzamide]	5050	178				
Cc1ccccc1C1CCCN1C1CCC(c2ccc(C(=O)NS(=O)(=O)c3ccc(NCC4CCOCC4)c([N+](=O)[O-])c3)c(Oc3cnc4[nH]ccc4c3)c2)CC1 (stereo not drawn) [Example D96, trans- or cis-2-((1H-pyrrolo[2,3-b]pyridin-5-yl)oxy)-N-((3-nitro-4-(((tetrahydro-2H-pyran-4-yl)methyl)amino)phenyl)sulfonyl)-4-(4-(2-(o-tolyl)pyrrolidin-1-yl)cyclohexyl)benzamide]	> 10000	43				
COc1ccccc1C1CCCN1C1CCC(c2ccc(C(=O)NS(=O)(=O)c3ccc(NCC4CCOCC4)c([N+](=O)[O-])c3)c(Oc3cnc4[nH]ccc4c3)c2)CC1 (stereo not shown) [Example D103, 2-((1H-pyrrolo[2,3-b]pyridin-5-yl)oxy)-4-(4-(2-(2-methoxyphenyl)pyrrolidin-1-yl)cyclohexyl)-N-((3-nitro-4-(((tetrahydro-2H-pyran-4-yl)methyl)amino)phenyl)sulfonyl)benzamide]	> 10000	144				
O=C(NS(=O)(=O)c1ccc(NCC2CCOCC2)c([N+](=O)[O-])c1)c1ccc(-c2ccc(N3CCCC3c3ccccc3)nc2)cc1Oc1cnc2[nH]ccc2c1 (stereo not shown) [Example E1, 2-((1H-pyrrolo[2,3-b]pyridin-5-yl)oxy)-N-((3-nitro-4-(((tetrahydro-2H-pyran-4-yl)methyl)amino)phenyl)sulfonyl)-4-(6-(2-phenylpyrrolidin-1-yl)pyridin-3-yl)benzamide]	> 10000	1630				
O=C(NS(=O)(=O)c1ccc(NCC2CCOCC2)c([N+](=O)[O-])c1)c1ccc(N2CCC(N3CCCC3c3ccccc3Cl)CC2)cc1Oc1cnc2[nH]ccc2c1 (stereo not shown) [Example E3, 2-((1H-pyrrolo[2,3-b]pyridin-5-yl)oxy)-4-(4-(2-(2-chlorophenyl)pyrrolidin-1-yl)piperidin-1-yl)-N-((3-nitro-4-(((tetrahydro-2H-pyran-4-yl)methyl)amino)phenyl)sulfonyl)benzamide]	> 10000	931				
O=C(NS(=O)(=O)c1ccc(NCC2CCOCC2)c([N+](=O)[O-])c1)c1ccc(N2CCC(N3CCCC3c3cccc(Cl)c3)CC2)cc1Oc1cnc2[nH]ccc2c1 (stereo not shown) [Example E4, 2-((1H-pyrrolo[2,3-b]pyridin-5-yl)oxy)-4-(4-(2-(3-chlorophenyl)pyrrolidin-1-yl)piperidin-1-yl)-N-((3-nitro-4-(((tetrahydro-2H-pyran-4-yl)methyl)amino)phenyl)sulfonyl)benzamide]	> 10000	798				
O=C(NS(=O)(=O)c1ccc(NCC2CCOCC2)c([N+](=O)[O-])c1)c1ccc(-c2cc3nc(N4CCCC4c4ccccc4)ccn3n2)cc1Oc1cnc2[nH]ccc2c1 (stereo not shown) [Example F1, 2-((1H-pyrrolo[2,3-b]pyridin-5-yl)oxy)-N-((3-nitro-4-(((tetrahydro-2H-pyran-4-yl)methyl)amino)phenyl)sulfonyl)-4-(5-(2-phenylpyrrolidin-1-yl)pyrazolo[1,5-a]pyrimidin-2-yl)benzamide]	6550	1800				
CN(c1ccc(C(=O)NS(=O)(=O)c2ccc(NCC3CCOCC3)c([N+](=O)[O-])c2)c(Oc2cnc3[nH]ccc3c2)c1)C1CCC(N2CCCC2c2ccccc2C2CC2)CC1 (stereo not drawn) [Example F11, (trans- or cis-) 2-((1H-pyrrolo[2,3-b]pyridin-5-yl)oxy)-4-((4-(2-(2-cyclopropylphenyl)pyrrolidin-lyI)cyclohexyl)(methyl)amino)-N-((3-nitro-4-(((tetrahydro-2H-pyran-4-yl)methyl)amino)phenyl)sulfonyl)benzamide]	> 10000	329				
O=C(NS(=O)(=O)c1ccc(NCC2(F)CCOCC2)c([N+](=O)[O-])c1)c1ccc(N2CCC3(CC2)CC(N2CCC[C@H]2c2ccccc2C2CC2)C3)cc1Oc1cnc2[nH]ccc2c1 [Example F22, (S)-2-((1H-pyrrolo[2,3-b]pyridin-5-yl)oxy)-4-(2-(2-(2-cyclopropylphenyl)pyrrolidin-1-yl)-7-azaspiro[3.5]nonan-7-yl)-N-((4-(((4-fluorotetrahydro-2H-pyran-4-yl)methyl)amino)-3-nitrophenyl)sulfonyl)benzamide]	2820		2820	1.3	1.3	
CCc1ccccc1[C@@H]1CCCN1C1CC2(CCN(c3ccc(C(=O)NS(=O)(=O)c4ccc(NCC5(F)CCOCC5)c([N+](=O)[O-])c4)c(Oc4cnc5[nH]ccc5c4)c3)CC2)C1 [Example F25, (S)-2-((1H-pyrrolo[2,3-b]pyridin-5-yl)oxy)-4-(2-(2-(2-ethylphenyl)pyrrolidin-1-yl)-7-azaspiro[3.5]nonan-7-yl)-N-((4-(((4-fluorotetrahydro-2H-pyran-4-yl)methyl)amino)-3-nitrophenyl)sulfonyl)benzamide]	4410		4410	2	2	
CCc1ccccc1[C@@H]1CCCN1C1CC2(CCN(c3ccc(C(=O)NS(=O)(=O)c4ccc(NC[C@H]5CC[C@](C)(O)CC5)c([N+](=O)[O-])c4)c(Oc4cnc5[nH]ccc5c4)c3)CC2)C1 [Example F26, 2-((1H-pyrrolo[2,3-b]pyridin-5-yl)oxy)-4-(2-((S)-2-(2-ethylphenyl)pyrrolidin-1-yl)-7-azaspiro[3.5]nonan-7-yl)-N-((4-((((1r,4r)-4-hydroxy-4-methylcyclohexyl)methyl)amino)-3-nitrophenyl)sulfonyl)benzamide]	> 10000		> 10000	1.9	1.9	
O=C(NS(=O)(=O)c1ccc(NCC2(F)CCOCC2)c([N+](=O)[O-])c1)c1ccc(N2CCC3(CC2)CC(N2CCC[C@@H]2c2ccccc2C2CC2)C3)cc1Oc1cnc2[nH]ccc2c1 [Example F28, (R)-2-((1H-pyrrolo[2,3-b]pyridin-5-yl)oxy)-4-(2-(2-(2-cyclopropylphenyl)pyrrolidin-1-yl)-7-azaspiro[3.5]nonan-7-yl)-N-((4-(((4-fluorotetrahydro-2H-pyran-4-yl)methyl)amino)-3-nitrophenyl)sulfonyl)benzamide]	> 10000			83		
O=C(NS(=O)(=O)c1ccc(NCC2CCOCC2)c([N+](=O)[O-])c1)c1ccc(N2CC3(CCC(N4CCC[C@H]4c4ccccc4C4CC4)CC3)C2)cc1Oc1cnc2[nH]ccc2c1 [Example F30, (S)-2-((1H-pyrrolo[2,3-b]pyridin-5-yl)oxy)-4-(7-(2-(2-cyclopropylphenyl)pyrrolidin-1-yl)-2-azaspiro[3.5]nonan-2-yl)-N-((3-nitro-4-(((tetrahydro-2H-pyran-4-yl)methyl)amino)phenyl)sulfonyl)benzamide]	> 10000	290				
CN(C)c1c(Cl)cccc1C1CCCN1C1CC2(CCN(c3ccc(C(=O)NS(=O)(=O)c4ccc(NCC5CCOCC5)c([N+](=O)[O-])c4)c(Oc4cnc5[nH]ccc5c4)c3)CC2)C1 (stereo not shown) [Example F36, 2-((1H-pyrrolo[2,3-b]pyridin-5-yl)oxy)-4-(2-(2-(3-chloro-2-(dimethylamino)phenyl)pyrrolidin-1-yl)-7-azaspiro[3.5]nonan-7-yl)-N-((3-nitro-4-(((tetrahydro-2H-pyran-4-yl)methyl)amino)phenyl)sulfonyl)benzamide]	6090	31		31		
CC(C)c1ccccc1[C@@H]1CCCN1C1CC2(CCN(c3ccc(C(=O)NS(=O)(=O)c4ccc(NCC5(F)CCOCC5)c([N+](=O)[O-])c4)c(Oc4cnc5[nH]ccc5c4)c3)CC2)C1 [Example F46]	2850		2850	0.4	0.4	
O=C(NS(=O)(=O)c1ccc(NCC2CCOCC2)c([N+](=O)[O-])c1)c1ccc(N2CCC3(CC2)CC(N2CCCC2c2cccc(C4CC4)c2)C3)cc1Oc1cnc2[nH]ccc2c1 (stereo not shown) [Example F53, 2-((1H-pyrrolo[2,3-b]pyridin-5-yl)oxy)-4-(2-(2-(3-cyclopropylphenyl)pyrrolidin-1-yl)-7-azaspiro[3.5]nonan-7-yl)-N-((3-nitro-4-(((tetrahydro-2H-pyran-4-yl)methyl)amino)phenyl)sulfonyl)benzamide]	> 10000			100		100
